# Measured values reported in PMC4336329 (PLoS ONE, 2015).
# Screen size: about 310,000 compounds; about 2,200 (0.71%) showed an effect of 50% or more. Effects have a minus sign here. The list shows a part of the results.
# Biological target: human ether-à-go-go-related gene (hERG) potassium channel (human, UniProt Q12809)
# Assay: primary screen, population patch clamp on CHO cells stably expressing hERG
# Sequence of human ether-à-go-go-related gene (hERG) potassium channel (Q12809 whole entry, looked up): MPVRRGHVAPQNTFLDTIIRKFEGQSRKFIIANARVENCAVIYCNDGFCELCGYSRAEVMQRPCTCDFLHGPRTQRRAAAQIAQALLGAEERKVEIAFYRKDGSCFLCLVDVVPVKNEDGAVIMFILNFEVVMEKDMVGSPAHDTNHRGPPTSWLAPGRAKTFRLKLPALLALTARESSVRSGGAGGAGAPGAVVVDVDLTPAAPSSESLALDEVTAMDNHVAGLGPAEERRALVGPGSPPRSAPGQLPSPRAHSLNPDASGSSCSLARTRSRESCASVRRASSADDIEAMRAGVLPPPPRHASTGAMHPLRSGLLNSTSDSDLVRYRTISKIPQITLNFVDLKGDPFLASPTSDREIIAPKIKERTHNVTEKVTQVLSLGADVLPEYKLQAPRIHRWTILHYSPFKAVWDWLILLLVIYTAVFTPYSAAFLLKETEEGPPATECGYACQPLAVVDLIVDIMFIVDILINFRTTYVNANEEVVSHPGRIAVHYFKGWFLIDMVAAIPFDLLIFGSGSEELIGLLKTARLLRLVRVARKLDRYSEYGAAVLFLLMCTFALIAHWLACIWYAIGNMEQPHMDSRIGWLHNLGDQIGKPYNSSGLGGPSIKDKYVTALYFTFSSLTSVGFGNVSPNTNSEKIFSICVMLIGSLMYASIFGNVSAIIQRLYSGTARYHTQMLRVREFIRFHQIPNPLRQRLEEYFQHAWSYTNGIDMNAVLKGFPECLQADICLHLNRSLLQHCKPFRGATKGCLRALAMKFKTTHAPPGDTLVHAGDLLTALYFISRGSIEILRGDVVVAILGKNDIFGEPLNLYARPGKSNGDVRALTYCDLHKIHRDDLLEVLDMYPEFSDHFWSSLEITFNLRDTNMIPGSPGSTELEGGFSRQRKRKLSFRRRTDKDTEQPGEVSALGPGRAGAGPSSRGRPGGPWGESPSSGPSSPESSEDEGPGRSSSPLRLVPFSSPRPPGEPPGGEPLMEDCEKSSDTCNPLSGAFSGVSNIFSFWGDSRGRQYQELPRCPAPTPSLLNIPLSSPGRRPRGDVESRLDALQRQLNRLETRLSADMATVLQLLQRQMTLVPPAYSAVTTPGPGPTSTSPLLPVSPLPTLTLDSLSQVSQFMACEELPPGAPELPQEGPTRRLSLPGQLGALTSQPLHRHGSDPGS
row,Compound,"hERG current change (%, negative = inhibition) at 1uM [%]"
1,Cc1cccc(C(=O)Nc2nnc(-c3cccnc3)o2)c1,0.882
2,O=[N+]([O-])c1cc(O)c2ncccc2c1,5.62
3,CC(C)c1nnc(NC(=O)CN2C(=O)c3ccccc3C2=O)s1,1.84
4,COc1cccc(C(=O)NN2CCOCC2)c1,6.58
5,CCCN(CCC)S(=O)(=O)c1nc2nc(C)cc(C)n2n1,1.33
6,CC(NCc1cccc(S(=O)(=O)N(C)C)c1)c1ccc(F)cc1 (stereo not drawn),9.06
7,CC(=O)c1ccccc1NC(=O)c1ccc2c(c1)NC(=O)C(C)S2 (stereo not drawn),2.68
8,CCc1nc2ccc(C(=O)NC3CCC(C)CC3)cc2nc1CC (stereo not drawn),-7.1
9,Cc1ccc(C)c(-n2sc3ccc(F)cc3c2=O)c1,17.7
10,COC(=O)CC1=NN(c2ccccc2)C(=O)/C1=C\c1ccc(OC)cc1,7.42
11,COC(=O)NNC(=O)C1CCC(C(=O)NNC(=O)OC)CC1 (stereo not drawn),4.56
12,Cc1c(/C=C2\NC(=O)NC2=O)c2ccccc2n1C,10.9
13,Cc1ccc(S(=O)(=O)c2c(C)cc(C)nc2Oc2cccc(C(F)(F)F)c2)cc1,14.5
14,O=C(COC(=O)c1ccc[nH]c1=O)Nc1cc(S(=O)(=O)N2CCCCC2)ccc1Cl,7.27
15,COc1cccc(C(=O)Cn2c(Br)nc3c2c(=O)n(C)c(=O)n3C)c1,-4.04
16,O=C(N/N=C/c1ccncc1)c1ccc(NS(=O)(=O)c2cccs2)cc1,9.43
17,COc1ccc(Cn2c(=O)[nH]c3cc(C(=O)NC4CCCC4)ccc3c2=O)cc1,8.84
18,Cc1cccc(C)c1N(CC(=O)NCc1ccco1)C(=O)CNS(=O)(=O)c1ccc(F)cc1,3.59
19,CN(Cc1ccccc1)C(=O)CSc1nc2ccccc2c(=O)n1Cc1ccco1,5.63
20,CCCCNC(=S)NNC(=O)c1cc(-c2ccncc2)nc2ccccc12,18.7
21,CCN(C(=O)COC(=O)CCC(=O)c1cccs1)c1c(N)n(Cc2ccccc2)c(=O)[nH]c1=O,3.9
22,O=C1/C(=C\c2cc3c(cc2Br)OCO3)N2CCC1CC2,15.2
23,CC(C)[C@H](NC(=O)c1ccccc1)C(=O)OCC(=O)c1ccc2c(c1)NC(=O)CO2,-2.99

row,Compound,"hERG current change (%, negative = inhibition) at 1uM [%]"
1,CSc1nnc(C2CCNCC2)n1C.Cl,10.9
2,COc1ccccc1NC(=O)C1=C(C)Nc2ncnn2C1c1cccs1 (stereo not drawn),13.7
3,CCC(=O)N1N=C(c2ccc(C)o2)CC1c1ccc(OC)cc1 (stereo not drawn),13
4,CCOCCc1c(O)nc(SCC(=O)N2CCOCC2)[nH]c1=O,13.6
5,CC(=O)C(Sc1ccc2nnc(-c3ccc(F)cc3)n2n1)C(C)=O,13.5
6,CCn1c(/C=C/c2ccc(F)cc2)nc2ccccc2c1=O,7.01
7,CCC(c1nnnn1C(C)(C)CC)N(CCCN1CCOCC1)Cc1cc2cccc(C)c2[nH]c1=O (stereo not drawn),0.0911
8,CCCNC(=O)NC(=O)CSc1nncs1,25
9,CCOC(=O)CCSCC(=O)N1N=C(c2cccs2)CC1c1ccc(C)cc1 (stereo not drawn),8.6
10,O=C(Nc1cc(F)cc(F)c1)c1ccc(NCCc2ccccc2)c([N+](=O)[O-])c1,9.2
11,Cc1cc(NC(=O)CCC(=O)N(c2ccccc2)C(C(=O)NC2CCCC2)c2cccs2)no1 (stereo not drawn),13.9
12,COc1ccccc1N1CCN(C(=O)C(C)NC(=O)c2ccco2)CC1 (stereo not drawn),6.25
13,COc1cc(/C=N/S(=O)(=O)CCc2ccccc2)ccc1O,7.5
14,Cc1cccc(NC(=S)N/N=C2\CC(C)(C)Oc3ccc(O)cc32)c1,6.99
15,Cc1ccc(-n2nc(C)c3c2OC(N)=C(C#N)C3c2ccccc2F)cc1 (stereo not drawn),7.35
16,CC(C)(C)C1CCC(OCC(O)CN2CCN(Cc3ccccc3)CC2)CC1.Cl (stereo not drawn),13.2
17,CC(C)NC(=O)c1cc(-n2cnnc2)ccc1Cl,12.6
18,CN(Cc1ccccc1)C(=S)Nc1ccc2nc3n(c(=O)c2c1)CCCCC3,-21.8
19,O=C1c2cc(S(=O)(=O)N(CCO)CCO)ccc2-c2ccc(S(=O)(=O)N(CCO)CCO)cc21,14.9
20,COc1cc(CNC(C)(C)C)cc(Br)c1OCc1cccs1.Cl,6.82
21,CCOC(=O)Cn1c(=O)oc2cc(S(=O)(=O)N3CCCc4ccccc43)ccc21,1.84
22,Cc1ccc(C(=O)NCC(=O)N2CCN(c3ncccn3)CC2)s1,-6.12
23,CCCC1C(c2ccccc2)C(C#N)(C#N)C2(C#N)CC1(N)NC2=O (stereo not drawn),4.83

row,Compound,"hERG current change (%, negative = inhibition) at 1uM [%]"
1,CCOc1ccc(-c2cccc(NS(=O)(=O)c3cc([N+](=O)[O-])ccc3Cl)c2)nn1,13.3
2,COCc1c(C(=O)Nc2ccc(Cl)cc2F)oc2ccccc12,4.3
3,O=C(OCC(=O)N1CCN(C(=O)c2ccco2)CC1)c1cn(-c2ccccc2)nc1-c1ccccc1,-23.1
4,CCn1nnnc1SCC(=O)Nc1sc(C)c(C)c1C#N,7.23
5,CC(C)(C)C(=O)/C(=C/c1ccncc1)n1cncn1,-7.97
6,CCOc1ccc(NC(=O)Cc2ccccc2)c([N+](=O)[O-])c1,14.2
7,Br.Brc1ccc(C2=Nn3c(nnc3-c3cccnc3)SC2)s1,10.8
8,O=[N+]([O-])c1cccc(-c2nnc(CNC3CC3)o2)c1,-21
9,CC(=O)c1cnc(Nc2ccc(C)cc2)s1,3.59
10,COc1ccc(CNc2c(CO)cnc3c2cnn3C)cc1,8.01
11,CCOP(=O)(Cc1ccc(C#N)o1)OCC,16.5
12,O=C(c1ccc(O)cc1)c1ccc(C(=O)O)c(C(=O)O)c1,17.7
13,Cc1ccc2c(C)c(C(=O)N3CCC(O)(c4ccccc4)CC3)oc2c1C,15.5
14,O=C(CSc1nccn(-c2ccc3c(c2)OCCO3)c1=O)Nc1ccccc1,13.7
15,COc1ccc(/C=C/C(=O)OCC(=O)c2c(C)[nH]c3ccccc23)cc1OC,0.968
16,CCc1sc(C(=O)Nc2ccccc2N2CCOCC2)cc1C,-1.09
17,O=C(NCc1ccncc1)c1nc(-c2cccs2)no1,-0.652
18,CCCCc1ccc(-c2nc(NC(=O)C3C4CCC(O4)C3C(=O)O)sc2C)cc1 (stereo not drawn),11.9
19,CC(c1ccco1)N(C(=O)COc1ccc(Cl)cc1Cl)c1ccccn1 (stereo not drawn),1.64
20,COc1cc(OC)cc(C(=O)N2CCC(C(=O)NCCc3ccccc3)CC2)c1,14.6
21,COc1ccc(C2NC(=O)NC(C)=C2C(=O)OCc2ccc3c(c2)OCO3)cc1OC (stereo not drawn),9.69
22,COc1ccc(OC)c(S(=O)(=O)N(C)CC(=O)O)c1,-1.6
23,CCc1c(C)sc(NC(=O)CN2CCN(C(=O)c3ccco3)CC2)c1C(=O)OC,-7.19

row,Compound,"hERG current change (%, negative = inhibition) at 1uM [%]"
1,COC(=O)CSc1nc(N2CCOCC2)c2c(c1C#N)CCCC2,15.2
2,CCCc1cc(=O)oc2c(C)c(O)c(CN3CCCCC3)cc12,4.25
3,O=C(Nc1ccccc1)N1CCCC(c2nc(-c3cccs3)no2)C1 (stereo not drawn),-1.07
4,Cc1ccccc1S(=O)(=O)c1c(C)cc(C)n(CC(C)C)c1=O,8.89
5,c1ccc2c(-c3nn[nH]n3)cccc2c1,9.54
6,CCCCc1nnc(NC(=O)CSc2nc(O)c(-c3ccccc3)c(=O)[nH]2)s1,11.7
7,Cc1cc(=O)n2[nH]c(SCc3ccccc3)nc2n1,9.29
8,O=C(CSC1=NCCN1)NC1CCCCCC1,-4.6
9,CS(=O)(=O)c1ccc2nc(NC(=O)C3CC(=O)N(c4ccccc4)C3)sc2c1 (stereo not drawn),0.138
10,COc1ccc(/C=N\NC(=O)c2ccccc2Br)cc1COc1ccc(F)cc1,4.15
11,COc1cc([N+](=O)[O-])ccc1NC(=O)N1CCCCCC1,5.44
12,CC(C)Oc1ccc(-c2nn(-c3ccccc3)cc2/C=c2\sc3ncnn3c2=O)cc1,5.65
13,Cc1cccc2sc(NC(=O)Cn3cccc3)nc12,4.91
14,O=C(N1CCN(c2ccccc2)CC1)C(F)(F)C(F)F,-6.71
15,CCOc1ccc(NC(=O)CSc2nnc(C3CC3)n2C)cc1,13.3
16,COc1ccccc1-n1cnc2cc(NCc3cccs3)ccc21,-5.29
17,CCOC(=O)C1CCCCN1C(=O)CCn1nnnc1CN1CCOCC1 (stereo not drawn),14.3
18,Cc1ccc(S(=O)(=O)NNC(=O)c2cc(C)cs2)cc1,13.7
19,Clc1cc(Sc2ccc(Br)cc2)nnc1-c1ccccc1,-0.175
20,CCCn1c(=O)c2ccccc2n2c(SCc3c(C(=O)OCC)oc4ccccc34)nnc12,8.38
21,CC/C(=N\NC(=O)CSCc1ccccc1Br)c1ccc2c(c1)OCCO2,1.06
